Results taken from a collection of fitness landscapes (doi:10.1016/j.celrep.2020.107928).
In all, about 81,000 sequences were measured (“one-hybrid fitness for binding NBS DNA”: median about -0.1, highest 2% from about 0.36 on). The list shows a part of the results.

B1: Caulobacter ParB omega fusion; a variant is named by its letters at X, in order, B8GW30 (parent)
chain: MESVVVGEPGMSEGRRGLGRGLSALLGEVDAAPAQAPGEQLGGSREAPIEILQRNPDQPRRTFREEDLEDLSNSIREKGVLQPILVRPSPDTAGEYQIVAGERAWRAAQRAGLKTVPIMVRELDDLAVLEIGIIENVQRADLNVLEEALSYKVLMEKFERTQENIAQTIGKSXSHVANXMRLLXLPDEVQSYLVSGELTAXHARAIAAAADPVALAKQIIEGGLSVRETEALARKAPNLSAGKSKGGRPPRVKDTDTQALESDLSSVLGLDVSIDHRGSTGTLTITYATLEQLDDLCNRLTRGI

Variants of: B1
Test: one-hybrid fitness for binding NBS DNA (the Noc-binding site; scaled: cognate 1, non-cognate 0); higher = stronger binding
Conditions: with NBS DNA site
How it was run: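 In E. coli USO, a HIS3 reporter with its site placed 19 bp from the promoter was used to select Caulobacter ParB variants randomised at four specificity codons. Growth lasted 48 hours at 37°C on histidine-free M9 containing 0.1 mM IPTG and 5 mM 3-AT. Fitness was taken as the log change in variant-to-wild-type read ratio from Illumina sequencing of pre- and post-selection plasmids, rescaled between the non-cognate and cognate sites.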

Variant | one-hybrid fitness for binding NBS DNA
ERAG | ≤ 0.2
PRLL | ≤ 0.2
PFAT | ≤ 0.2
WSEM | ≤ 0.2
CYNT | ≤ 0.2
FCGR | ≤ 0.2
RIWI | ≤ 0.2
WAPG | ≤ 0.2
SRYK | ≤ 0.2
SHHY | ≤ 0.2
RSRF | ≤ 0.2
PGYW | ≤ 0.2
QDNN | ≤ 0.2
DAPA | ≤ 0.2
QFAV | ≤ 0.2
FNLC | ≤ 0.2
FVAS | ≤ 0.2
DILS | ≤ 0.2
AIQY | ≤ 0.2
VRKE | ≤ 0.2
FTKK | ≤ 0.2
QGDF | ≤ 0.2
RQSL | ≤ 0.2
PPTV | ≤ 0.2

Variant | one-hybrid fitness for binding NBS DNA
VTTT | ≤ 0.2
LHAG | ≤ 0.2
YNNE | ≤ 0.2
SRRL | ≤ 0.2
PSRC | ≤ 0.2
KAAN | ≤ 0.2
GGYG | ≤ 0.2
TWNC | ≤ 0.2
QLYE | ≤ 0.2
WHGR | ≤ 0.2
SSSG | ≤ 0.2
QLEY | ≤ 0.2
TLTS | ≤ 0.2
FTNC | ≤ 0.2
SSHP | ≤ 0.2
SGAV | ≤ 0.2
AITP | ≤ 0.2
DPVA | ≤ 0.2
ARHE | ≤ 0.2
TTIC | ≤ 0.2
PTYF | ≤ 0.2
KRVA | ≤ 0.2
YRIR | ≤ 0.2
TTMW | ≤ 0.2

Variant | one-hybrid fitness for binding NBS DNA
HIAA | ≤ 0.2
SLHE | ≤ 0.2
NAYM | ≤ 0.2
TRGM | ≤ 0.2
AARN | ≤ 0.2
LYNG | ≤ 0.2
DNSG | ≤ 0.2
INAI | ≤ 0.2
APHF | ≤ 0.2
KFYG | ≤ 0.2
ETPC | ≤ 0.2
LVNY | ≤ 0.2
PVGF | ≤ 0.2
SHSK | ≤ 0.2
HKFY | ≤ 0.2
IMKL | ≤ 0.2
NSSS | ≤ 0.2
MMLR | ≤ 0.2
LLIA | ≤ 0.2
PGFY | ≤ 0.2
PKSF | ≤ 0.2
RWGW | ≤ 0.2
WNDR | ≤ 0.2
PTPY | ≤ 0.2

Variant | one-hybrid fitness for binding NBS DNA
WVTV | ≤ 0.2
RKKP | ≤ 0.2
STDI | ≤ 0.2
FFAM | ≤ 0.2
TKMF | ≤ 0.2
PIKT | ≤ 0.2
IPSW | ≤ 0.2
QRRK | 0.747
HFDG | ≤ 0.2
LRYK | ≤ 0.2
LDAG | ≤ 0.2
GGWY | ≤ 0.2
RALP | ≤ 0.2
QCAS | 0.451
PTYN | ≤ 0.2
RWTL | ≤ 0.2
LGQC | ≤ 0.2
DCHR | ≤ 0.2
YHTN | ≤ 0.2
TTNW | ≤ 0.2
TRDV | ≤ 0.2
WTCG | ≤ 0.2
MRTW | ≤ 0.2
RDLV | ≤ 0.2

Variant | one-hybrid fitness for binding NBS DNA
WPCP | ≤ 0.2
FATL | ≤ 0.2
SKNY | ≤ 0.2
RHME | ≤ 0.2
GPRQ | ≤ 0.2
QCDF | ≤ 0.2
LGAM | ≤ 0.2
KRSK | ≤ 0.2
CRVW | ≤ 0.2
RCRT | 0.706
HPDS | ≤ 0.2
RLAK | ≤ 0.2
RINT | 0.554
VYVE | ≤ 0.2
QETN | ≤ 0.2
MERY | ≤ 0.2
SANS | ≤ 0.2
KCLA | ≤ 0.2
QCLV | ≤ 0.2
SCIV | ≤ 0.2
MHSH | ≤ 0.2
RTFP | ≤ 0.2
RIAE | ≤ 0.2
VENP | ≤ 0.2

Variant | one-hybrid fitness for binding NBS DNA
TAAE | ≤ 0.2
PRAE | ≤ 0.2
EQLV | ≤ 0.2
WNLG | ≤ 0.2
RDYL | ≤ 0.2
PYDK | ≤ 0.2
SHPD | ≤ 0.2
QYQF | ≤ 0.2
LADM | ≤ 0.2
DWWR | ≤ 0.2
TLHS | ≤ 0.2
QASG | ≤ 0.2
QNNC | ≤ 0.2
QDPG | ≤ 0.2
QPQI | ≤ 0.2
QNCV | ≤ 0.2
SALM | ≤ 0.2
CQLL | ≤ 0.2
AEMR | ≤ 0.2
RYCK | ≤ 0.2
YETT | ≤ 0.2
QRVF | ≤ 0.2
RAYM | ≤ 0.2
RTSF | ≤ 0.2

Variant | one-hybrid fitness for binding NBS DNA
QPHS | ≤ 0.2
VGDK | ≤ 0.2
HHMT | ≤ 0.2
RRAR | 0.757
HMRV | ≤ 0.2
TSTD | ≤ 0.2
MWSW | ≤ 0.2
CTWS | ≤ 0.2
SIKS | ≤ 0.2
PTGC | ≤ 0.2
YIAG | ≤ 0.2
VPAF | ≤ 0.2
APGV | ≤ 0.2
NKPV | ≤ 0.2
LDRA | ≤ 0.2
RSQK | ≤ 0.2
TRAC | ≤ 0.2
RQPK | ≤ 0.2
FTLC | ≤ 0.2
MTVD | ≤ 0.2
SKTK | ≤ 0.2
PDEW | ≤ 0.2
VWNK | ≤ 0.2
YHKG | ≤ 0.2

Variant | one-hybrid fitness for binding NBS DNA
KKAA | ≤ 0.2
HRNI | ≤ 0.2
GNHG | ≤ 0.2
ADKN | ≤ 0.2
IALR | ≤ 0.2
GKYN | ≤ 0.2
WVCS | ≤ 0.2
MAHM | ≤ 0.2
SIVC | ≤ 0.2
SVTA | ≤ 0.2
EILC | ≤ 0.2
QAFV | ≤ 0.2
TKNV | ≤ 0.2
YPPV | ≤ 0.2
RLMK | ≤ 0.2
QCVN | ≤ 0.2
QHRD | 0.234
DHKE | ≤ 0.2
QRKM | 0.557
QQTP | ≤ 0.2
SACN | ≤ 0.2
RMFL | ≤ 0.2
WSLK | ≤ 0.2
EWMS | ≤ 0.2

Variant | one-hybrid fitness for binding NBS DNA
LNAG | ≤ 0.2
RTET | 0.234
RCTE | ≤ 0.2
AYIK | ≤ 0.2
RGMT | ≤ 0.2
LTVS | ≤ 0.2
KDRT | ≤ 0.2
CSDF | ≤ 0.2
YDHY | ≤ 0.2
ACMT | ≤ 0.2
RCWG | ≤ 0.2
TSLF | ≤ 0.2
FLPR | ≤ 0.2
ACNL | ≤ 0.2
QGGN | ≤ 0.2
NHLM | ≤ 0.2
PGNL | ≤ 0.2
FKTV | ≤ 0.2
CPQR | ≤ 0.2
SRRC | ≤ 0.2
GTMN | ≤ 0.2
KKLS | ≤ 0.2
KTYP | ≤ 0.2
LKHS | ≤ 0.2

Variant | one-hybrid fitness for binding NBS DNA
LNPG | ≤ 0.2
APNI | ≤ 0.2
TCPG | ≤ 0.2
PGKW | ≤ 0.2
VLYE | ≤ 0.2
SLYS | ≤ 0.2
APPF | ≤ 0.2
VKLR | ≤ 0.2
RMQT | 0.371
NPPF | ≤ 0.2
SGFR | ≤ 0.2
HTVW | ≤ 0.2
LCTL | ≤ 0.2
TQSD | ≤ 0.2
WSNM | ≤ 0.2
VIWS | ≤ 0.2
ANGR | ≤ 0.2
SHGN | ≤ 0.2
LQPD | ≤ 0.2
KWRT | ≤ 0.2
LMRG | ≤ 0.2
QMKY | 0.516
VANR | ≤ 0.2
ANYY | ≤ 0.2

Variant | one-hybrid fitness for binding NBS DNA
NHRR | ≤ 0.2
HLNR | ≤ 0.2
WLET | ≤ 0.2
ASIC | ≤ 0.2
AQTK | ≤ 0.2
CYCC | ≤ 0.2
WIGP | ≤ 0.2
PNKN | ≤ 0.2
TFHT | ≤ 0.2
QIWC | ≤ 0.2
REPL | ≤ 0.2
QKQC | ≤ 0.2
QIMR | 0.348
SPDT | ≤ 0.2
QCGF | ≤ 0.2
YHSL | ≤ 0.2
KTMT | ≤ 0.2
FCGS | ≤ 0.2
VLVI | ≤ 0.2
SNPS | ≤ 0.2
MFSL | ≤ 0.2
HLKH | ≤ 0.2
SIER | ≤ 0.2
QGAK | ≤ 0.2

Variant | one-hybrid fitness for binding NBS DNA
YSPW | ≤ 0.2
PMPE | ≤ 0.2
IWDM | ≤ 0.2
DRCW | ≤ 0.2
AMLA | ≤ 0.2
QRYA | 0.588
GNLA | ≤ 0.2
GILC | ≤ 0.2
SRIA | ≤ 0.2
DADR | ≤ 0.2
KQLV | ≤ 0.2
SYNL | ≤ 0.2
RFMC | ≤ 0.2
DVSG | ≤ 0.2
VQGC | ≤ 0.2
WQTR | ≤ 0.2
GVCC | ≤ 0.2
FWLG | ≤ 0.2
CQAK | ≤ 0.2
MTSC | ≤ 0.2
AQSP | ≤ 0.2
YMTE | ≤ 0.2
RICE | ≤ 0.2
LVPW | ≤ 0.2

Variant | one-hybrid fitness for binding NBS DNA
PVSC | ≤ 0.2
QKQS | 0.458
PRSC | ≤ 0.2
DSPK | ≤ 0.2
ISRS | ≤ 0.2
LRGF | ≤ 0.2
PKGT | ≤ 0.2
IYDR | ≤ 0.2
AAHC | ≤ 0.2
PCTI | ≤ 0.2
SELT | ≤ 0.2
CHSR | ≤ 0.2
QSLL | ≤ 0.2
IPLG | ≤ 0.2
ACWG | ≤ 0.2
RGES | ≤ 0.2
CSRS | ≤ 0.2
SDSE | ≤ 0.2
